The other results are listed elsewhere or left out.
What was measured:
Experiment in all cases: glycan array binding signal (z-score within array); higher = stronger binding
Conditions in all cases: glycan notation: IUPAC condensed, linker removed
[1] = biological target: Neu5Ac(a2-3)Gal(b1-4)GlcNAc(b1-2)Man(a1-3)[Neu5Ac(a2-3)Gal(b1-4)GlcNAc(b1-2)Man(a1-6)]Man(b1-4)GlcNAc(b1-4)[Fuc(a1-6)]GlcNAc
How it was run: (§1)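 Columns mapping to the same glycan were averaged after glycan names were converted to IUPAC-condensed notation. The data come from 3228 arrays in the Consortium for Functional Glycomics database, limited to those with an available protein sequence. Binding is reported as a within-array Z-score averaged across arrays of one protein sequence and across linkers.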

[2] = biological target: Neu5Ac(a2-3)Gal(b1-4)GlcNAc(b1-2)Man(a1-3)[Neu5Ac(a2-6)Gal(b1-4)GlcNAc(b1-2)Man(a1-6)]Man(b1-4)GlcNAc(b1-4)GlcNAc
How it was run: as §1

[3] = biological target: Neu5Ac(a2-3)Gal(b1-4)GlcNAc(b1-2)[Neu5Ac(a2-3)Gal(b1-4)GlcNAc(b1-4)]Man(a1-3)[GlcNAc(b1-4)][Neu5Ac(a2-3)Gal(b1-4)GlcNAc(b1-2)[Neu5Ac(a2-3)Gal(b1-4)GlcNAc(b1-6)]Man(a1-6)]Man(b1-4)GlcNAc(b1-4)GlcNAc
How it was run: as §1

[4] = biological target: Neu5Ac(a2-3)Gal(b1-4)GlcNAc(b1-2)[Neu5Ac(a2-3)Gal(b1-4)GlcNAc(b1-4)]Man(a1-3)[GlcNAc(b1-4)][Neu5Ac(a2-3)Gal(b1-4)GlcNAc(b1-4)Man(a1-6)]Man(b1-4)GlcNAc(b1-4)GlcNAc
How it was run: as §1

[5] = biological target: Neu5Ac(a2-3)Gal(b1-4)GlcNAc(b1-2)[Neu5Ac(a2-3)Gal(b1-4)GlcNAc(b1-6)]Man(a1-6)[Neu5Ac(a2-3)Gal(b1-4)GlcNAc(b1-2)Man(a1-3)]Man(b1-4)GlcNAc(b1-4)GlcNAc
How it was run: as §1

[6] = biological target: Neu5Ac(a2-3)Gal(b1-4)GlcNAc(b1-2)[Neu5Ac(a2-3)Gal(b1-4)GlcNAc(b1-6)]Man(a1-6)[Neu5Ac(a2-3)Gal(b1-4)GlcNAc(b1-2)Man(a1-3)][GlcNAc(b1-4)]Man(b1-4)GlcNAc(b1-4)GlcNAc
How it was run: as §1

[7] = biological target: Neu5Ac(a2-3)Gal(b1-4)GlcNAc(b1-3)Gal
How it was run: as §1

[8] = biological target: Neu5Ac(a2-3)Gal(b1-4)GlcNAc(b1-3)Gal(b1-3)GlcNAc
How it was run: as §1

[9] = biological target: Neu5Ac(a2-3)Gal(b1-4)GlcNAc(b1-3)Gal(b1-4)GlcNAc
How it was run: as §1

[10] = biological target: Neu5Ac(a2-3)Gal(b1-4)GlcNAc(b1-3)Gal(b1-4)GlcNAc(b1-2)Man(a1-3)[Neu5Ac(a2-3)Gal(b1-4)GlcNAc(b1-3)Gal(b1-4)GlcNAc(b1-2)Man(a1-6)]Man(b1-4)GlcNAc(b1-4)GlcNAc
How it was run: as §1

[11] = biological target: Neu5Ac(a2-3)Gal(b1-4)GlcNAc(b1-3)Gal(b1-4)GlcNAc(b1-3)Gal(b1-4)GlcNAc
How it was run: as §1

[12] = biological target: Neu5Ac(a2-3)Gal(b1-4)GlcNAc(b1-3)Gal(b1-4)GlcNAc(b1-3)Gal(b1-4)GlcNAc(b1-2)Man(a1-3)[Neu5Ac(a2-3)Gal(b1-4)GlcNAc(b1-3)Gal(b1-4)GlcNAc(b1-3)Gal(b1-4)GlcNAc(b1-2)Man(a1-6)]GalNAc
How it was run: as §1

[13] = biological target: Neu5Ac(a2-3)Gal(b1-4)GlcNAc(b1-3)Gal(b1-4)GlcNAc(b1-3)GalNAc
How it was run: as §1

[14] = biological target: Neu5Ac(a2-3)Gal(b1-4)GlcNAc(b1-3)Gal(b1-4)GlcNAc(b1-3)[Neu5Ac(a2-3)Gal(b1-4)GlcNAc(b1-3)Gal(b1-4)GlcNAc(b1-6)]GalNAc
How it was run: as §1

[15] = biological target: Neu5Ac(a2-3)Gal(b1-4)GlcNAc(b1-3)Gal(b1-4)GlcNAc(b1-6)[Gal(b1-3)]GalNAc
How it was run: as §1

[16] = biological target: Neu5Ac(a2-3)Gal(b1-4)GlcNAc(b1-3)Gal(b1-4)[Fuc(a1-3)]GlcNAc
How it was run: as §1

[17] = biological target: Neu5Ac(a2-3)Gal(b1-4)GlcNAc(b1-3)GalNAc
How it was run: as §1

[18] = biological target: Neu5Ac(a2-3)Gal(b1-4)GlcNAc(b1-3)[Neu5Ac(a2-3)Gal(b1-4)GlcNAc(b1-6)]GalNAc
How it was run: as §1

[19] = biological target: Neu5Ac(a2-3)Gal(b1-4)GlcNAc(b1-6)GalNAc
How it was run: as §1

[20] = biological target: Neu5Ac(a2-3)Gal(b1-4)GlcNAc(b1-6)[Gal(b1-3)]GalNAc
How it was run: as §1

[21] = biological target: Neu5Ac(a2-3)Gal(b1-4)GlcNAc(b1-6)[Neu5Ac(a2-3)Gal(b1-3)]GalNAc
How it was run: as §1

[22] = biological target: Neu5Ac(a2-3)Gal(b1-4)GlcNAc6S
How it was run: as §1

[23] = biological target: Neu5Ac(a2-3)Gal(b1-4)[Fuc(a1-3)]GlcNAc
How it was run: as §1

[24] = biological target: Neu5Ac(a2-3)Gal(b1-4)[Fuc(a1-3)]GlcNAc(b1-2)Man
How it was run: as §1

[25] = biological target: Neu5Ac(a2-3)Gal(b1-4)[Fuc(a1-3)]GlcNAc(b1-3)Gal
How it was run: as §1

[26] = biological target: Neu5Ac(a2-3)Gal(b1-4)[Fuc(a1-3)]GlcNAc(b1-3)Gal(b1-4)GlcNAc
How it was run: as §1

[27] = biological target: Neu5Ac(a2-3)Gal(b1-4)[Fuc(a1-3)]GlcNAc(b1-3)Gal(b1-4)[Fuc(a1-3)]GlcNAc(b1-3)Gal(b1-4)[Fuc(a1-3)]GlcNAc
How it was run: as §1

[28] = biological target: Neu5Ac(a2-3)Gal(b1-4)[Fuc(a1-3)]GlcNAc(b1-3)GalNAc
How it was run: as §1

[29] = biological target: Neu5Ac(a2-3)Gal(b1-4)[Fuc(a1-3)]GlcNAc(b1-6)[Gal(b1-3)]GalNAc
How it was run: as §1

[30] = biological target: Neu5Ac(a2-3)Gal(b1-4)[Fuc(a1-3)]GlcNAc(b1-6)[Neu5Ac(a2-3)Gal(b1-3)]GalNAc
How it was run: as §1

[31] = biological target: Neu5Ac(a2-3)Gal(b1-4)[Fuc(a1-3)]GlcNAc6S
How it was run: as §1

[32] = biological target: Neu5Ac(a2-3)Gal6S(b1-4)GlcNAc
How it was run: as §1

[33] = biological target: Neu5Ac(a2-3)Gal6S(b1-4)[Fuc(a1-3)]GlcNAc
How it was run: as §1

Neu5Ac(a2-3)GalNAc = biological target: Neu5Ac(a2-3)GalNAc
How it was run: as §1

[34] = biological target: Neu5Ac(a2-3)GalNAc(b1-4)GlcNAc
How it was run: as §1

[35] = biological target: Neu5Ac(a2-3)[GalNAc(b1-4)]Gal(b1-4)Glc
How it was run: as §1

[36] = biological target: Neu5Ac(a2-3)[GalNAc(b1-4)]Gal(b1-4)GlcNAc
How it was run: as §1

[37] = biological target: Neu5Ac(a2-3)[GalNAc(b1-4)]Gal(b1-4)GlcNAc(b1-3)GalNAc
How it was run: as §1

[38] = biological target: Neu5Ac(a2-3)[Neu5Ac(a2-6)]GalNAc
How it was run: as §1

Neu5Ac(a2-6)Gal = biological target: Neu5Ac(a2-6)Gal
How it was run: as §1

[39] = biological target: Neu5Ac(a2-6)Gal(b1-3)GlcNAc(b1-3)[Gal(b1-4)GlcNAc(b1-6)]Gal(b1-4)Glc
How it was run: as §1

Neu5Ac(a2-6)Gal(b1-4)Glc = biological target: Neu5Ac(a2-6)Gal(b1-4)Glc
How it was run: as §1

[40] = biological target: Neu5Ac(a2-6)Gal(b1-4)GlcNAc
How it was run: as §1

[41] = biological target: Neu5Ac(a2-6)Gal(b1-4)GlcNAc(b1-2)Man
How it was run: as §1

[42] = biological target: Neu5Ac(a2-6)Gal(b1-4)GlcNAc(b1-2)Man(a1-3)Man(b1-4)GlcNAc(b1-4)GlcNAc
How it was run: as §1

B1: SSR2 (Sclerotium rolfsii) (protein)
chain: MVYKITVRVYQTNPDAFFHPVEKTVWKYANGGTWSITDDQHVLTMGGSGTSGTLRFHADNGESFTATFGVHNYKRWCDIVTNLAADETGMVINQQYYSQKNREEARERQLSNYQVKNAKGRNFQIVYTEAEGNDLHANLIIG
glycan array binding signal (z-score) [1]: -0.257 | glycan array binding signal (z-score) [2]: -0.298 | glycan array binding signal (z-score) [3]: -0.282 | glycan array binding signal (z-score) [4]: -0.284 | glycan array binding signal (z-score) [5]: -0.363 | glycan array binding signal (z-score) [6]: -0.29 | glycan array binding signal (z-score) [7]: -0.288 | glycan array binding signal (z-score) [8]: -0.291 | glycan array binding signal (z-score) [9]: -0.288 | glycan array binding signal (z-score) [10]: -0.224 | glycan array binding signal (z-score) [11]: -0.287 | glycan array binding signal (z-score) [12]: -0.191 | glycan array binding signal (z-score) [13]: -0.287 | glycan array binding signal (z-score) [14]: -0.267 | glycan array binding signal (z-score) [15]: 0.625 | glycan array binding signal (z-score) [16]: -0.291 | glycan array binding signal (z-score) [17]: -0.27 | glycan array binding signal (z-score) [18]: -0.275 | glycan array binding signal (z-score) [19]: -0.275 | glycan array binding signal (z-score) [20]: 1.02 | glycan array binding signal (z-score) [21]: 0.099 | glycan array binding signal (z-score) [22]: -0.293 | glycan array binding signal (z-score) [23]: -0.293 | glycan array binding signal (z-score) [24]: -0.284 | glycan array binding signal (z-score) [25]: -0.284 | glycan array binding signal (z-score) [26]: -0.247 | glycan array binding signal (z-score) [27]: -0.279 | glycan array binding signal (z-score) [28]: -0.25 | glycan array binding signal (z-score) [29]: -0.253 | glycan array binding signal (z-score) [30]: -0.255 | glycan array binding signal (z-score) [31]: -0.293 | glycan array binding signal (z-score) [32]: -0.285 | glycan array binding signal (z-score) [33]: -0.296 | glycan array binding signal (z-score) (Neu5Ac(a2-3)GalNAc): -0.252 | glycan array binding signal (z-score) [34]: -0.279 | glycan array binding signal (z-score) [35]: -0.273 | glycan array binding signal (z-score) [36]: -0.277 | glycan array binding signal (z-score) [37]: -0.249 | glycan array binding signal (z-score) [38]: -0.286 | glycan array binding signal (z-score) (Neu5Ac(a2-6)Gal): -0.287 | glycan array binding signal (z-score) [39]: -0.271 | glycan array binding signal (z-score) (Neu5Ac(a2-6)Gal(b1-4)Glc): -0.289 | glycan array binding signal (z-score) [40]: -0.282 | glycan array binding signal (z-score) [41]: -0.269 | glycan array binding signal (z-score) [42]: -0.286

Reference: the supplement of paper PMC8728848
